# Test results as given in ChEMBL document CHEMBL4888484, “Replenishing the malaria drug discovery pipeline: Screening and hit evaluation of the MMV Hit Generation Library 1 (HGL1) against asexual blood stage Plasmodium falciparum ,using a nano luciferase reporter read-out” (2022).
# “And” between values parts separate entries of the source, which are not always exact repeats. Equal values may be shown once. Out of some 150,000 compounds screened, about 540 (0.36%) showed an effect of 50% or more. The list shows a part of the results.
# Tested on: Plasmodium falciparum
# Test: Primary screen in NF54 nanoGlo assay, in single point, at 2uM, 72h; a lower Z score goes with more inhibition
# Type: functional, Erythrocyte
# Conditions: timepoint 72 hour
Compound,% Inhibition [%],Z score,% Inhibition (2 µM)
CC(=O)Nc1cccc2c(C(=O)N3CCCC3)ccnc12,-3,0.57,
CCOC=CC(O)(CNC(=O)N[C@@H]1COC[C@@H]1OC)C(F)(F)F (some centres not stated),-13,1.67,
CC(C)c1cncnc1N1C[C@@H]2OC(=O)N(CCCN3CCOCC3)[C@@H]2C1,-14,1.99,
COc1cc(CNC2CCCC2)cc(Cl)c1OCc1ccccc1Cl,,,3% and -11%
CCn1nnc(C)c1C(=O)NCCn1cnnc1C(C)C,12,-1.51,
CNc1ncc(C(=O)NC[C@@H](c2ccc(F)cc2)N2CCCC2)cn1,-12,2.37,
COCCNC(=O)c1csc(C(C)C)c1,-14,1.99,
C[C@H]1CN(CC(=O)Nc2ccccn2)Cc2c[nH]nc21,4,-0.45,
O=C(CN1CC(c2nc3ccccc3[nH]2)C1)NC[C@H]1CCCO1,-8,0.77,
CN(c1ncc(Cl)cn1)C1CC[S+]([O-])CC1 (configuration not stated),0,-0.06,
C=CCCC(=O)[C@@H]1CCCN1S(=O)(=O)c1c(C)nn(C)c1C,-10,1.8,
CCOc1ccc(CNC(=O)c2cc(C3CC3)n(C)n2)cc1,-10,1.99,
Cc1noc(C)c1CCC(=O)NC1CCN(c2cnccn2)CC1,3,-0.45,
COCc1cn(C[C@H]2C[C@@H](NC(=O)Nc3ccc4c(c3)OCCO4)[C@H](O)[C@@H]2O)nn1,15,-1.75,
Cc1ccc(C)c(CNC(=O)[C@H]2CCCN(c3nnc4ccccn34)C2)c1,-6,1.22,
COCCN(Cc1cccnc1)C(=O)c1ccccc1-c1nnn[nH]1,-10,1.01,
CN[C@@H](C(=O)Nc1nc(C2CC2)c(Cc2ccccc2F)s1)c1cnn(C)c1,-8,1,
Cc1cc(NC(=O)C(=O)NC[C@H](O)c2ccc(C)o2)no1,-15,2.52,
CC(Cc1ccncc1)NC(=O)N1CCN2C(=O)NCC2C1 (configuration not stated),-5,0.74,
CCC[C@]1(C(=O)O)CCCN(C(=O)CCCc2cn[nH]c2)C1,-6,0.86,
CCc1ccc(-c2n[nH]c3c2cnc2ccc(OC)cc23)cc1,32,-0.66,
CCOC(=O)N1CCN(Cn2c(=S)sc3ccccc32)CC1,-11,1.54,
Clc1ccc(-c2nccn2[C@H]2CCCOC2)c(Cl)c1,-2,0.22,
CCCC(=O)Nc1ccc(N2CCN(CC(=O)N(CC)CC)CC2)cc1C(=O)O,38,-5.53,
